The whole screen tested about 7,900 compounds, of which about 400 (5.1%) showed an effect of 50% or more. The list shows a part of the results.
The compounds below were run against Parkinson's disease protein 7 (PARK7/DJ1) (human, UniProt Q99497) (assay: primary screen, percent inhibition; read as competition with a fluorescent probe by fluorescence polarization; higher = more effect of the substance). Details: 100 µM.
Sequence of Parkinson's disease protein 7 (PARK7/DJ1) (Q99497 whole entry, looked up, the tested form may be a part): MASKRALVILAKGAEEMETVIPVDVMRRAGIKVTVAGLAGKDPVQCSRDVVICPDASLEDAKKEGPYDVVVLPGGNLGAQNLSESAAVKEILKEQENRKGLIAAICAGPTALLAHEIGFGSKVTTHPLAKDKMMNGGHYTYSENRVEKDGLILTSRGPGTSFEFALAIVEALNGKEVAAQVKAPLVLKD
How it was run: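 Covalent fragments at 100 μM final were incubated 2 h with 0.2 μM PARK7, then 20 nM probe JYQ-107 added for a further 2 h. Fluorescence polarization read at 480/520 nm; relative FP loss versus reference controls gave remaining enzyme activity.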
C=CC(=O)N1CSCC1C(=O)NCC1CC1 (stereo not drawn) showed an Inhibition % of 12.6%. COc1ccc(C(C)C)cc1S(=O)(=O)n1cccn1 gave an Inhibition % of 2.8%. With C=CC(=O)N1CC(C)(C)C1c1cccs1 (stereo not drawn) the Inhibition % was 8.35%. C=CC(=O)N(C)C(c1ccc(Cl)cc1)C1CCOCC1 (stereo not drawn) gave an Inhibition % of 6.78%. C=CC(=O)N1C[C@@H](C(F)(F)F)[C@H](S(=O)(=O)N(C)C)C1 gave an Inhibition % of 4.79%. C#CC(=O)Cc1ccccc1 showed an Inhibition % of 7.8%. C=CC(=O)N1CC(N)C1.O=S(=O)(O)C(F)(F)F gave an Inhibition % of 8.51%. Work on COc1ccc(B2OC(C)(C)C(C)(C)O2)c(N)c1 yielded an Inhibition % of 56%. Cc1nc(C=CC(=O)N2CCC(C(=O)O)C2)cs1.Cl.Cl (stereo not drawn) gave an Inhibition % of 5.34%. In the case of C=CC(=O)NCc1ccns1, the Inhibition % is reported as 10.9%. With Cn1ncc(Cl)c1B1OC(C)(C)C(C)(C)O1 the Inhibition % was 25%. In the case of C=CC(=O)Nc1cc(F)ccc1C, the Inhibition % is reported as 3.57%. With N#Cc1cnn(-c2ccccc2)c1NC(=O)CCl the Inhibition % was 2.36%. Work on CCN(C(=O)c1cc(B(O)O)ccc1F)C1CCOC(C)(C)C1 (stereo not drawn) yielded an Inhibition % of 3.67%. Compound C=CC(=O)NCC(=O)Nc1cn[nH]c1 has an Inhibition % of 30.4%. C=CC(=O)N1CCn2nc(C)nc2C1 was tested, and the Inhibition % was 12.4%. Compound CS(=O)(=O)N1CC2OC2C1 (stereo not drawn) has an Inhibition % of 12.1%. O=C(CCl)N1CCC(OCc2ccccc2)CC1 was tested, and the Inhibition % was 12.9%. With COC(=O)Cc1ccccc1B1OC(C)(C)C(C)(C)O1 the Inhibition % was 4.19%. Compound O=C(Oc1cccc(-c2nnco2)c1)N1CCOCC1 has an Inhibition % of 6.58%. For C=CC(=O)NCc1ncc(C(F)(F)F)cn1, the Inhibition % was 11.5%. C=CC(=O)NC1CCN(CC2CCCO2)CC1 (stereo not drawn) gave an Inhibition % of 1.78%. For O=C(O)c1ccc(S(=O)(=O)F)c(Cl)c1, the Inhibition % was 94.7%. C=CC(=O)NC(c1cccnc1)c1cc2ccccc2o1 (stereo not drawn) was tested, and the Inhibition % was 9%. In the case of C=CC(=O)N1CCOC(Cn2ccnn2)C1 (stereo not drawn), the Inhibition % is reported as 6.45%. Cc1cc(C)n(S(=O)(=O)c2cc(Cl)ccc2Cl)n1 showed an Inhibition % of 6.42%. With O=C(O)CC1OCCCO1 the Inhibition % was -4.03%. C=CC(=O)N1CCC(c2cc(C(=O)O)on2)CC1 was tested, and the Inhibition % was 7.61%. Cc1ccc(C2CO2)cc1 (stereo not drawn) gave an Inhibition % of 6.97%. CC(N)C1CCCN(C(=O)C=Cc2ccccn2)C1 (stereo not drawn) gave an Inhibition % of 6.48%. With CC1CCC(N(C)C(=O)Cn2cnc(C#N)n2)CC1 (stereo not drawn) the Inhibition % was 5.54%. In the case of C=CC(=O)NC(C)(C)C1CCOCC1, the Inhibition % is reported as 5.49%. For O=C(CCl)NC1CCN(C(=O)CCc2ccccc2)CC1, the Inhibition % was 11.9%. Compound COc1cc(C)c(C(C)C)cc1S(=O)(=O)n1ccc(C)n1 has an Inhibition % of 4.05%. Compound COc1ccc(CNC(=O)CCl)cc1OC has an Inhibition % of 6.67%. In the case of C=CC(=O)N1CCC(C#N)(c2ccccn2)CC1, the Inhibition % is reported as 12.6%. O=C(NCC(CO)c1ccccc1)c1cccnc1S (stereo not drawn) was tested, and the Inhibition % was 9.26%. C=CC(=O)NCC1COc2ccccc2C1 (stereo not drawn) was tested, and the Inhibition % was 6.04%. N#CC(C(=O)CCl)c1nc(-c2ccccc2)cs1 (stereo not drawn) showed an Inhibition % of 2.49%. For COc1ccc(-n2c(C)c(C)c(C#N)c2NC(=O)CCl)cc1, the Inhibition % was 8.76%. With C#Cc1ccc(S(=O)(=O)F)cc1 the Inhibition % was 14.4%. C=CC(=O)NCc1ncc(C)s1 gave an Inhibition % of 7.52%. Work on O=C(CCl)Nc1c(Cl)cc(Cl)cc1Cl yielded an Inhibition % of 6.3%. With N#Cc1ncn(CC(=O)c2ccc[nH]2)n1 the Inhibition % was 9.25%. With CC1CC(N2CCc3c(nc(C4CC4)n3C)C2)C(=O)O1 (stereo not drawn) the Inhibition % was 5.37%. Cc1cc(C#N)nc(Cl)n1 showed an Inhibition % of 4.76%. In the case of COc1ccc(C2CCCN2C(=O)CCl)cc1OC (stereo not drawn), the Inhibition % is reported as 9.71%. C=CC(=O)N1CCC(C)(c2ccccc2)C1 (stereo not drawn) gave an Inhibition % of 8.41%. Work on C=CC(=O)NCC1Cc2ccccc2N(C)C1 (stereo not drawn) yielded an Inhibition % of 13.5%. Work on N#CC(=Cc1cccnc1)C(=O)NCCc1ccccc1 yielded an Inhibition % of 0.295%. In the case of O=C(CCl)NNC(=O)c1ccccc1, the Inhibition % is reported as -3.2%. Work on Cn1cnc2c(S)ncnc21 yielded an Inhibition % of 9.16%. With C=CC(=O)N1CC(Cc2ccccc2C)C1 the Inhibition % was 8.3%. In the case of C=CC(=O)NCc1coc(-c2ccccc2)n1, the Inhibition % is reported as -4.69%. CC(C1CC1)N(C(=O)CCl)C1CC1 (stereo not drawn) showed an Inhibition % of 31.4%. Compound Cl.ClCCN1CCOCC1 has an Inhibition % of 6.9%. Cc1ccc(S)nc1 was tested, and the Inhibition % was 7.53%. In the case of Cc1cccc(NC(=O)NC(=O)CCl)c1C, the Inhibition % is reported as -3%. Work on CC(C)c1csc(C2CCCN(C3CCOC3=O)C2)n1 (stereo not drawn) yielded an Inhibition % of 3.81%. In the case of Cc1csc(NS(=O)(=O)c2cccc(S(=O)(=O)F)c2)n1, the Inhibition % is reported as 83.9%. CC1(C)C(=O)NC1c1nccn1CC1CC1 (stereo not drawn) gave an Inhibition % of 17.8%. CC1(C)OB(C=C(c2ccccc2)C(F)(F)F)OC1(C)C was tested, and the Inhibition % was 3.39%. Compound N#CC(=Cc1ccc2c(c1)OCCO2)c1ccccn1 has an Inhibition % of 14.7%. For Cc1cc(C)n2nc(SC3CCOC3=O)nc2n1 (stereo not drawn), the Inhibition % was 11.1%. In the case of C=CC(=O)Nc1ccnn1CC1CC1, the Inhibition % is reported as 8.8%. CC1CC(C)CN(C(=O)CCl)C1 (stereo not drawn) was tested, and the Inhibition % was 29%. For Cc1cc(S(=O)(=O)F)ccc1C(=O)O, the Inhibition % was 85.1%. Work on Cl.N#Cc1nc2c(s1)CNCC2 yielded an Inhibition % of 26%. O=S(=O)(F)c1ncc(Br)cn1 gave an Inhibition % of 5.61%. Cn1nc(C2CCCC2)cc1NC(=O)c1c[nH]c(C#N)c1 gave an Inhibition % of 36.5%. Work on COc1ccc(CNC(=O)n2nc(C)cc2C)cc1 yielded an Inhibition % of 42.8%. C=CC(=O)NCCN1CCCS1(=O)=O showed an Inhibition % of 16.1%. C=CC(=O)NC1CC(C)OC1C (stereo not drawn) gave an Inhibition % of 4.78%. For O=C(CCl)N1CCCC1c1cccs1 (stereo not drawn), the Inhibition % was 15.8%. Cc1cc2ncn(CCC3OCCO3)c2cc1C was tested, and the Inhibition % was 5.56%. O=C(CCl)Nc1ccc(I)cc1 showed an Inhibition % of 93.2%. C=CC(=O)N1CCCC1c1cccc(C)c1 (stereo not drawn) showed an Inhibition % of 3.98%. With CN(C)S(=O)(=O)c1ccc(NC(=O)CCCl)cc1 the Inhibition % was 7.94%. With Cc1[nH]c2ccccc2c1C=C(C#N)C(N)=O the Inhibition % was 29%. Work on CC(=O)N1CCN(C(=O)C(C#N)=Cc2ccccc2)CC1 yielded an Inhibition % of 10.8%. CC1(C)OB(c2ccc(C(F)(F)F)o2)OC1(C)C gave an Inhibition % of -0.214%.

— article PMC9574860, “Chemical Toolkit for PARK7: Potent, Selective, and High-Throughput” (Journal of Medicinal Chemistry, 2022)
